# According to PubChem BioAssay AID1240 (Sanford-Burnham Center for Chemical Genomics, 2008):
# Screen size: about 50,000 compounds; about 800 (1.6%) showed an effect of 50% or more. This is one part of the list.
# Biological target: Bcl-2-like protein 10 (Homo sapiens) (UniProt Q9HD36)
# Assay: TR3 peptide-Bcl-B binding displacers, biochemical primary FP assay, phenotype converters (AID 1240);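 also: 0% = Bcl-B with tracer peptide and DMSO and 100% = tracer peptide lacking Bcl-B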
# Details: GST-Bcl-B / FITC-TR3 peptide fluorescence polarization; stronger effect = higher value; compound at 3.75 mg/L
# Sequence of UniProt Q9HD36 (Q9HD36 whole entry, looked up): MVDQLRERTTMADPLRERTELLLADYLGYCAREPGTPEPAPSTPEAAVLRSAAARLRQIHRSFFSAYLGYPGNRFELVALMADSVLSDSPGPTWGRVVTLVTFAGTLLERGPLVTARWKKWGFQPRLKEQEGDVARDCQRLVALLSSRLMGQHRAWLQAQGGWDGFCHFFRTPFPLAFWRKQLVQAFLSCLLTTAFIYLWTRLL
row,Compound,displacement [%]
1,COc1ccc(N2C(=O)c3ccccc3NC2c2cccc(F)c2)cc1 (configuration not stated),7.7
2,CCN(CC)c1ccc(C=NN2CCN(Cc3ccccc3)CC2)c(O)c1,-6
3,Cc1cccc(-n2c(SCCc3ccccc3)nc3ccccc3c2=O)c1,-7.2
4,O=C1NC(=O)N(c2cccc(F)c2)C(=O)/C1=C/c1ccc(Sc2ccccc2)o1,-18.2
5,CSc1nsc(SC)c1NC(=O)OC1CCCCC1,-1.7
6,CCOc1ccc(C2=C/C(=C/c3ccc(Br)o3)C(=O)O2)cc1,-22.1
7,CCOC(=O)C1=C(C)N=c2s/c(=C\c3ccc(N(C)C)o3)c(=O)n2C1c1cccs1 (configuration not stated),0.1
8,Cc1ccc(NC(=O)c2c(NC(=O)c3cccs3)sc3c2CCCCC3)c(C)c1,-8
9,O=C1C2C3C=CC(C4CC34)C2C(=O)N1c1ccc(Cl)cc1 (configuration not stated),-3.5
10,COc1cccc(/C=C(\C#N)C(N)=O)c1,-3.8
11,Cc1ccc(S(=O)(=O)Nc2ccc(S(=O)(=O)N3CCOCC3)cc2)cc1,8.2
12,COc1ccc(N2C(=O)CC(NCc3ccc(Cl)c(Cl)c3)C2=O)cc1 (configuration not stated),-0.9
13,CNc1nc(Nc2ccc([N+](=O)[O-])cc2)nc(OCC(F)(F)C(F)F)n1,13.8
14,O=C(O)CN(c1ccc(Br)cc1)S(=O)(=O)c1ccccc1,0
15,CCOC(=O)c1c(NC(=O)/C=C/c2cccs2)sc(C)c1C,2.9
16,Cc1[nH]c2ccccc2c1/C=C/c1nc2ccccc2c(=O)n1C,186
17,O=C(CCC(=O)N/N=C/c1ccccc1C(F)(F)F)N/N=C/c1ccccc1C(F)(F)F,2.4
18,C=C(Br)n1c(COc2ccccc2)nc2ccccc21,9.8
19,O=C(Cn1c(-c2ccccc2)c[n+]2ccsc12)c1ccc([N+](=O)[O-])cc1,13.8
20,O=C(N=Nc1c(O)n(CN2CCCC2)c2ccccc12)c1cccnc1,5.9
21,COc1ccccc1N(CC(=O)NC(C)c1ccccc1)S(=O)(=O)c1ccccc1 (configuration not stated),1.1
22,CC(C)(C)OC(=O)N1CC(O)CC1C(=O)OCC(=O)c1ccc(-c2ccccc2)cc1 (configuration not stated),4.5
23,O=C(O)CCN1C(=O)/C(=C/c2ccc(-c3ccccc3[N+](=O)[O-])o2)SC1=S,40.8
24,CCOC(=O)c1ccc(NC(=O)CN(c2ccc(C)cc2)S(C)(=O)=O)cc1,6.5

row,Compound,displacement [%]
1,c1csc(CNc2ccc(-c3nc4ccccc4s3)cc2)c1,12.1
2,CCC(=O)Nc1ccc(NC(=O)c2ccc(Br)o2)cc1,13.2
3,COC(=O)C1C(C(C)C)N(c2ccccc2)OC1(C)O (configuration not stated),11.7
4,Cc1cc(Cl)ccc1OC(C)C(=O)NCc1ccc2c(c1)OCO2 (configuration not stated),-6.5
5,NC(=O)c1nn2c(C(F)(F)F)cc(-c3ccccc3)nc2c1Br,3.7
6,Cc1cccc(C(=O)O/N=C(\N)c2cccnc2)c1,11.7
7,COc1cccc(NC(=S)NC(NC(=O)c2ccccc2)C(Cl)(Cl)Cl)c1 (configuration not stated),-0.4
8,OC(COCC1CC=CCC1)Cn1c2ccccc2c2ccccc21 (configuration not stated),-3.8
9,C/C(O)=C\C(N)=N/c1nc(C)cc(C)n1,19.9
10,O=C(NCc1cccc(CNC(=O)C(=O)NCC2CCCO2)c1)C(=O)NCC1CCCO1 (configuration not stated),10.9
11,O=S(=O)(Nc1ccc(Br)cc1)c1ccc(Cl)cc1,13.5
12,CC(C)(C)NC(=S)NC12CC3CC(CC(C3)C1)C2,15.4
13,O=C(NC1CCCCC1)C1CN(S(=O)(=O)c2ccccc2)CCN1S(=O)(=O)c1ccccc1 (configuration not stated),-6.2
14,O=S(=O)(Nc1ccc(S(=O)(=O)N2CCCCC2)cc1)c1ccccc1,4.5
15,O=C(NCc1ccccc1)C(O)(c1ccc(Cl)cc1)c1ccc(Cl)cc1,-6
16,CC(C)(C)C(=O)/C=C/c1ccc([N+](=O)[O-])cc1,7
17,COc1ccccc1C(=O)NC(=S)Nc1ccccc1,2.5
18,Cc1cc(OCCCCCn2ccnc2)cc(C)c1Cl,-5.3
19,C/C(=N\N=C1\NC(=O)C(CC(=O)Nc2ccccc2F)S1)c1ccc(Cl)cc1 (configuration not stated),-2.7
20,O=C1CC(c2cc(Br)ccc2F)c2ccc3ccccc3c2N1 (configuration not stated),11.2
21,CC(=O)c1cccc(NC(=O)c2ccc3c(c2)OCO3)c1,-14.5
22,O=C(Nc1ccccc1C(=O)O)c1cccc(N2C(=O)c3cccc([N+](=O)[O-])c3C2=O)c1,1.4
23,NS(=O)(=O)c1ccc(NC(=O)CCC2CCCCC2)cc1,-1.8
24,COc1cc(Br)c(/C=N/NS(=O)(=O)c2ccc(C)cc2)cc1OC,10.2

row,Compound,displacement [%]
1,CS(=O)(=O)N1CCN(C(=O)Cc2ccccc2)CC1,12.7
2,Cc1nnc(C)n1/N=C/c1ccc(Cl)c([N+](=O)[O-])c1,8.3
3,Cc1cc(/C=N/n2cnnc2)c(C)n1-c1ccccc1,13.6
4,O=C(Nc1ccc(Cl)cc1)Nc1nnc(Cc2ccccc2)s1,12
5,CN(C)c1ccc(/C=N/NC(=O)c2cc(Br)ccc2O)cc1,12
6,Clc1ccc(Cn2cc(/C=N/n3cnnc3)c3ccccc32)cc1Cl,2.8
7,OC(C#CCN1CCCCC1)(c1ccccc1)c1ccccc1,4.7
8,CCOC(=O)c1cc(C(=O)NC(C)c2ccccc2)c(=O)[nH]c1C (configuration not stated),4.8
9,N#Cc1c(/N=C/c2ccccc2Cl)sc2c1CCCC2,12.1
10,COC(=O)CSC1=C(C#N)C(c2ccsc2)CC(=O)N1 (configuration not stated),-8.1
11,COc1ccc(NC(=O)c2cc3ccccc3cc2OC)cc1OC,8.8
12,COc1ccccc1C(=O)Nc1ccc2nn(-c3ccc(F)cc3)nc2c1,1.3
13,Cc1cccc(OCC(=O)O/N=C(\N)Cc2ccc(Cl)cc2Cl)c1,3.2
14,O=C(Nc1ccc(Br)cc1)C1CC(=O)N(c2ccc(Cl)cc2)C1 (configuration not stated),9
15,Cc1ccc(-c2cc3nc(C)c(Cl)c(C)n3n2)cc1,-8.3
16,O=C(Nc1ccc2oc(-c3ccncc3)nc2c1)c1ccccn1,11.6
17,CC(C)(C)n1c(O)c(N=Nc2ccc(Br)cc2)c(=O)[nH]c1=O,0.5
18,COc1ccc2nc(SCC(=O)Nc3ccc(Cl)cc3)[nH]c2c1,0.3
19,O=C(Nc1ccc(Cl)cc1)c1ccncc1,-3.3
20,COC(=O)c1cc(NC(=O)c2ccc3c(c2)OCCO3)cc(C(=O)OC)c1,11.4
21,COc1cccc(/C=C2\Sc3ccccc3C2=O)c1O,4.9
22,Cc1ccc(C2=NNC(c3ccc(Cl)cc3)S2)cc1 (configuration not stated),4.8
23,O=C(NCCc1ccc(Cl)cc1)C(=O)Nc1ccccc1F,5.5
24,Cc1ccccc1NC(=O)c1cnccn1,-5.9
